Assay results: PubChem BioAssay AID1745853 (National Center for Advancing Translational Sciences (NCATS), 2022)
Where “and” joins values, the source holds several entries; their conditions need not be identical. Equal values may be shown once. The list shows a part of the results. Shown are side measurements of this screen, not its main read-out; they come without a call.

Legend:
Experiment in all cases: Primary Screen for Target Class Profiling of Small Molecule Inhibitors of Methyltransferases
[1] = target: Glycine N-methyltransferase (Homo sapiens) (UniProt Q14749); details: purified enzyme, MTase-Glo SAH luminescence; measured here: GNMT inhibition; at 40 µM; stronger effect = lower value
In short: (§1)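 Each enzyme was assayed with SAM and its substrate. SAH formation detected by MTase-Glo luminescence; single-point 40 uM screen[…].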

[2] = target: Guanidinoacetate N-methyltransferase (Homo sapiens) (UniProt Q14353); details: purified enzyme, MTase-Glo SAH luminescence; measured here: GAMT inhibition; at 40 µM; stronger effect = lower value
In short: as §1

[3] = target: Histamine N-methyltransferase (Homo sapiens) (UniProt P50135); details: purified enzyme, MTase-Glo SAH luminescence; measured here: HNMT inhibition; at 40 µM; stronger effect = lower value
In short: as §1

[4] = target: Nicotinamide N-methyltransferase (Homo sapiens) (UniProt P40261); details: purified enzyme, MTase-Glo SAH luminescence; measured here: NNMT inhibition; at 40 µM; stronger effect = lower value
In short: as §1

[5] = target: Phenylethanolamine N-methyltransferase (Homo sapiens) (UniProt P11086); details: purified enzyme, MTase-Glo SAH luminescence; measured here: PNMT inhibition; at 40 µM; stronger effect = lower value
In short: as §1
On the % scale 0 is the no-effect control and ±100 the full control effect.

Structure (SMILES) | activity change, negative = inhibition [1] | activity change, negative = inhibition [2] | activity change, negative = inhibition [3] | activity change, negative = inhibition [4] | activity change, negative = inhibition [5]
COc1ccc(OC)c2c1cc1n2CC(C)(C(=O)NC2CCCCCC2)N(Cc2cccs2)C1=O (stereo not given) | 2.23% | 0.329% | 2.75% | -4.69% | -0.434%
O=C(NCc1ccco1)C1CC(c2ccccc2)CN(C(=O)Nc2ccc(Cl)cc2)C1 (stereo not given) | -8.67% | -9.8% | -4.47% | -9.24% | -4.44%
Cc1ccc(Cn2c(=O)c3ccccc3n3c(SCC(=O)Nc4ccc(F)cc4F)nnc23)cc1 | -2.93% | 3.84% | 4.09% | -6.84% | -1.1%
CN1CCC2(CCC1=O)CN(C(=O)c1ccc(Cn3cccn3)o1)CCN2C (stereo not given) | -7.08% | -12% | -4.88% | -20.1% | -15.5%
CN1C(=O)c2cc(C(=O)NCc3ccco3)nn2CC1(C)C(=O)NC1CCCCC1 (stereo not given) | 1.06% | 4.49% | 3.59% | 6.46% | 2.25%
O=C(CCc1nnc2n(Cc3ccccc3)c(=O)c3ccccc3n12)NCc1ccccc1Cl | -8.97% | 3.03% | 1.58% | 0.865% | -3.06%
CCOC(=O)C1=CN(CC(=O)Nc2ccccc2C(F)(F)F)S(=O)(=O)N=C1C | -1.9% | 0.045% | 0.741% | 2.21% | 1.53%
COCCNC(=O)CCc1nnc2n(CCc3ccccc3)c(=O)c3ccccc3n12 | -9.4% | 0.128% | 11% | 15.3% | 4.4%
C=C(C)C1CC2(CO)C(=CC1=O)CCC(O)C2C (stereo not given) | 0% | 1.55% | 8.37% | -8.46% | 2.77%
CC1(c2noc(-c3cccnc3)n2)CCN(C(=O)CCC(=O)n2ncc3c(Cl)cccc32)CC1 | -0.211% | -0.88% | 1.76% | 0.593% | -3.12%
COc1cccc(N2C(=O)c3cc(C(C)(C)C)nn3CC2(C)C(=O)NC2CCCCCC2)c1 (stereo not given) | 4.42% | 1.8% | 9.1% | 3.53% | 3.56%
Cc1noc(-c2ccco2)c1C(=O)NC(C)c1ccccc1 (stereo not given) | -0.271% | 2.21% | 0.862% | -7.98% | 8.06%
CC(C)CCn1c(=O)c2ccc(C(=O)NC(C)C)cc2n2c(=O)n(Cc3c(F)cccc3Cl)nc12 | 1.91% | 6.77% | 0.805% | -0.867% | -0.461%
CC(NC(=O)c1ccc2c(=O)nc3c(-c4ccccc4)n[nH]n3c2c1)c1ccccc1 (stereo not given) | -8.25% | -2.27% | -5.04% | -1.89% | -7.83%
Cc1cc(C(=O)N2C[C@@H](CN3CCCCCC3)[C@@H](CO)C2)nc(C)n1 | -3.33% | 3.07% | -12.6% | 0.684% | 13.6%
COc1cccc(Cn2nc3n(C(C)C)c(=O)c4ccc(C(=O)NC5CCCC5)cc4n3c2=O)c1 | 2.8% | 0.131% | 9.31% | 0.931% | 5.28%
CCn1cc(S(=O)(=O)N2C[C@@H](Oc3ccccc3)C[C@H]2C(=O)N2CCCC2)cn1 | -0.77% | -1.5% | 2.5% | -5.21% | -8.89%
Cc1cc(C)cc(NC(=O)Cn2c(=O)oc3cc(S(=O)(=O)N4CC(C)CC(C)C4)ccc32)c1 (stereo not given) | 0.064% | 2.25% | -0.258% | 2.25% | -20.1%
O=c1ccn([C@@H]2O[C@H](COP(=O)(O)OP(=O)(O)O)[C@@H](O)[C@H]2O)c(=O)[nH]1 | 11.2% | 12.7% | 13.5% | -6% | -0.144%
O=[S+]([O-])(c1ccccc1)N1CC2(CCCCN2Cc2cccnc2)Cc2ccccc21 (stereo not given) | -7.72% | -1.8% | -5.09% | -12.6% | 10.6%

Structure (SMILES) | activity change, negative = inhibition [1] | activity change, negative = inhibition [2] | activity change, negative = inhibition [3] | activity change, negative = inhibition [4] | activity change, negative = inhibition [5]
CC(C(O)c1ccc(O)cc1)N1CCC(Cc2ccccc2)CC1 (stereo not given) | -5.28% and 1.43% | -5.24% and 7.53% | -6.49% and -11.6% | -11.3% and -10.8% | -5.63% and -2.95%
CN(CC1CCOC1)S(=O)(=O)c1cccs1 (stereo not given) | -3.55% | -2.46% | -1.83% | -8.33% | -4.3%
Cc1ccccc1-n1cc(CNC(=O)C(c2cccc(F)c2)N(C)C)cn1 (stereo not given) | -0.461% | -1.54% | 0.767% | -1.39% | 1.27%
Cc1ccc(C(C)NC(=O)CN2C(=O)C3(CCNCC3)Nc3ccccc32)cc1 (stereo not given) | -5.87% | -8.86% | -5.88% | -17.7% | -24.5%
CCOC(=O)c1cc2n(n1)CC(C)(C(=O)NC1CCCCCC1)N(c1cccc(Cl)c1)C2=O (stereo not given) | 6.17% | 0% | -1.28% | 1.51% | 7.64%
COc1ccc(C(=O)CSc2nnc3n(CC(C)C)c(=O)c4ccc(C(=O)NC(C)C)cc4n23)cc1 | 3.84% | 2.91% | -3.11% | 0.525% | 2.98%
CCCn1c(=O)c(C)cn2nc(N)nc12 | -3.46% | 7.9% | 1.47% | -0.962% | 9.2%
O=C(Nc1ccnn1C1CCN(Cc2ccc(-c3ccccc3)cc2)CC1)C1CC1 | -3.15% | -1.32% | -2.55% | -2.95% | -1.41%
Cc1ccc(CNC(=O)c2ccc3c(=O)nc4c(-c5ccccc5F)n[nH]n4c3c2)cc1 | -21.1% | 2.29% | 2.54% | 5.58% | -0.234%
COc1cccc(NS(=O)(=O)c2ccc3[nH]c(=O)[nH]c3c2)c1 | 3.25% | 2.42% | 3.55% | -2.63% | -13.3%
FC(F)(F)c1cccc(-c2nccn3c(C4CN(Cc5ccc6cn[nH]c6c5)C4)ncc23)c1 | -16.3% | -0.7% | -62.2% | -25.5% | -1.64%
O=C(O)Cn1nnc(-c2ccc(CN(CCCCOc3ccc(CN4CCCC4)cc3)CCc3ccccc3)cc2)n1 | 3.42% | 27.7% | -58.3% | 4.23% | 10.3%
O=C(O)C1=CC(=C(c2ccc(O)c(C(=O)O)c2)c2ccc(O)c(C(=O)O)c2)C=CC1=O | -82.5% | -17.5% | -23.3% | -14.9% | -4.42%
COc1ccc(NC(=O)CSc2nnc3n(CC(C)C)c(=O)c4ccc(Cl)cc4n23)cc1 | -8.17% | 0.245% | -5.35% | -10.3% | -4.3%
CCN1C(=O)c2cc3ccccc3n2CC1(C)C(=O)NCC(=O)NCc1ccc(C)o1 (stereo not given) | -1.5% | 0% | 5.19% | -4.04% | 0.058%
COc1ccc(N(C(=O)Nc2c(C)cccc2C)c2cc(Nc3ccc(N4CCN(C)CC4)cc3)ncn2)c(OC)c1 | -12.8% | -0.59% | -38.4% | -50.1% | -7.03%
CCCNc1cc(N2CCC(CCC(=O)NCCN3CCCCCC3)CC2)ncn1 | -11.4% | -3.83% | -55.4% | -49.8% | -61.7%
CCCN1CCC[C@@H](c2cccc(S(C)(=O)=O)c2)C1 | -0.391% | 0.359% | 0.036% | -12.2% | -3.97%
COc1ccc(C(C)NC(=O)c2cc3n(n2)CC(c2ccc(Cl)cc2)OC3)cc1OC (stereo not given) | -11.7% | -2.56% | -0.844% | -4.67% | 0.893%
